Measurements from PubChem BioAssay AID1508623 (National Center for Advancing Translational Sciences (NCATS), 2021).
Among all 48,000 compounds or so, about 450 (0.94%) were called active. Not shown: some 19% with an inconclusive outcome. Calls follow the shape of the dose curve; as a rule, active = well fitted inhibition curve with a large enough effect; inconclusive = small, poorly fitted or top-dose-only effect; inactive = no such curve, though single readings can be large or run the other way. This is one part of the list.

Assay: Primary qHTS for Identification of Small Molecule Inhibitors of Huntingtin Promoter Activity; also: nearly all actives have a fitted effect of over 50% in size
Settings: HEK293 HTT promoter firefly luciferase reporter (activity 0% = vehicle and -100% = no light), 24 h; series mostly up to 57.5 µM; activity change, negative = inhibition: at the top concentration
How it was run: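 Firefly luciferase signal from promoter-reporter HEK293 cells was scaled between vehicle (0%) and zero RLU (-100%). Compounds were tested at final concentrations of up to 57.5 uM over 24 h at 37 degrees C. PTC124 at 50 uM final served as control inhibitor.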

Activity change, negative = inhibition, inactive:
Cc1c(CCC(=O)N2CCCCC2)c(=O)oc2cc3occ(C(C)(C)C)c3cc12 -10.1%
Cc1ccc2nc(NC(=O)CSc3ncc(C(=O)Nc4ccc(F)cc4)c(=O)n3C)sc2c1 11.2%
COCCn1cc(C(=O)NCCCOC(C)C)c2c3ccccc3n(C)c2c1=O 10.1%
Cc1ccc(Cc2nc3ccccc3nc2SCC(=O)N2CCN(c3ccc(F)cc3)CC2)cc1 -6.31%
CCOC(=O)c1noc2nc(C)n(Cc3cccc([N+](=O)[O-])c3)c(=O)c12 -6.35%
CCc1ccc(-n2nc(C)c3c(C)cc(=O)n(CC(=O)Nc4ccc(F)cc4C)c32)cc1 -6.91%
CCOC(=O)Cn1c(=O)n(C2CCCCC2)c2nc(-c3ccc(C(C)C)cc3)nc(C(N)=O)c21 -7.06%
Cc1ccc2c(CN3CCN(C(=O)c4ccc(Br)cc4)CC3)cc(=O)oc2c1 -9.84%
COc1ccccc1NC(=O)CSC1=Nc2ccccc2C2=NC(CC(=O)NCc3ccccc3)C(=O)N12 (configuration not stated) -5.99%
CCOc1ccc(NC(=O)C2CCCN(c3nnc(C)c4c(C)n(-c5ccccc5)nc34)C2)cc1 (configuration not stated) -21.2%
Cn1c(=O)c2c(nc(N3CCOCC3)n2Cc2ccc(Br)cc2)n(C)c1=O -5.45%
Cc1ccc(CN2CCN(C3CCNCC3)C(=O)C2=O)cc1 -9.62%
COc1ccc(NC(=O)C2CCN(c3ccc(Sc4ccc(C)cc4)nn3)CC2)c(OC)c1 0.424%
O=C(CSc1ccc(-c2ccccn2)nn1)Nc1ccc(F)cc1F -8.05%
CNS(=O)(=O)c1cn(CC(=O)Nc2ccc(C(C)=O)cc2)cc1S(=O)(=O)NC 20%
Cc1ccc(CN2CCN(C3CCN(C(=O)Nc4ccc(C)cc4Cl)CC3)C(=O)C2=O)cc1 -3.62%
CC(=O)N1CCc2cc(CNC(=O)c3ccccc3Br)ccc21 20.2%
CCCCNS(=O)(=O)c1ccc(C)c(-c2nnc3c4ccccc4c(C)nn23)c1 -14.3%
O=C(NCc1cccs1)C1CCN(C(=O)N2CCOc3ccc(Cl)cc32)CC1 -13.3%
CC(=O)N1CCc2cc(S(=O)(=O)NC(Cc3ccccc3)C(=O)NCc3ccc(C)cc3)ccc21 (configuration not stated) -26.6%
COc1ccc(CCNC(=O)C2CCN(S(=O)(=O)c3c(C)noc3/C=C/c3ccc(C)cc3)CC2)cc1OC -6.09%
Nc1ccn(C[C@@H](CO)OCP(=O)(O)O)c(=O)n1 0.766% [at 25.2 µM]
CC(C)CCN(C(=O)Nc1ccccc1)C(C)c1cccs1 (configuration not stated) -36.4%
Cc1cc(C)c(Cn2c(C3CC(=O)N(c4ccc(F)cc4)C3)nc3ccccc32)c(C)c1 (configuration not stated) -14.4%
CCOC(=O)c1ccc(NC(=O)CCn2ccc(C)n2)cc1 -0.783%
COc1cccc(NC(=O)CSc2nc(=O)n(Cc3ccncc3)c3c2CCC3)c1 0%
CCOC(=O)N1CCC2(CC1)OC(=O)C(C)=C2C(=O)NCc1cccc(F)c1 -5.03%
Cc1cccc(NC(=O)CN2C(=O)c3cccc4cccc2c34)c1C -9.2%
CCCN1CCN(c2ncnc3sc(C(=O)Nc4c(C)cc(C)cc4C)c(C)c23)CC1 -9.59%
CCc1ccc(C(=O)c2cn(CC(=O)Nc3ccc(OC)cc3)c3cc4c(cc3c2=O)OCO4)cc1 -10%
NC(=O)C1(N2CCCCC2)CCN(C(=O)Nc2ccc(F)cc2F)CC1 -2.66%
NS(=O)(=O)c1ccc(NC(=O)C(=O)Nc2ccc3nc4n(c(=O)c3c2)CCCCC4)cc1 13.2%
Cc1cccc(C(=O)N2c3nc(-c4ccco4)nn3C3(CCCCC3)[C@@H]3CCCC[C@@H]32)c1 -32%
O=c1ccc(-c2ccccc2)nn1Cc1ccc(F)cc1Cl -31.2%
O=C1c2c(O)cc(O)cc2OC(c2ccc(O)c(O)c2)C1O (configuration not stated) -18.2%
CCOc1ccc2nc(N3CCCC(C(=O)Nc4cc(Cl)c(OC)cc4OC)C3)sc2c1 (configuration not stated) 6.77%
Cc1c(C(=O)Nc2cccc(-c3nc4ccccc4s3)c2)oc2ccccc12 24.2%
CN(C)CCCOc1nn(Cc2ccccc2)c2ccccc12 -22.2%
CCCCCCSc1nnc2c(n1)OC(C)Nc1ccc(Br)cc1-2 (configuration not stated) -32.1%
COc1ccc(Nc2nccc(NCCO)n2)cc1 35.4%
CCOC(=O)c1ccccc1NC(=O)COc1ccccc1-c1nnc(-c2ccccc2)o1 -29.2%
COc1ccc(CNC(=O)c2ccc(NC(=O)N3CCSc4ccccc43)cc2)cc1 -8%
COc1cc2c(=O)n(CCC(=O)NCC3CCCO3)c(=O)n(CC(=O)Nc3ccc(C)cc3C)c2cc1OC (configuration not stated) -7.79%
Cc1ccccc1Cn1c2ccccc2c2cnn(CC(=O)NC3CCC(C)CC3)c(=O)c21 (configuration not stated) -13.1%
COc1cc(NC(=O)C(CC(C)C)NS(=O)(=O)c2ccc3c(c2)CCN3C(C)=O)cc(OC)c1 (configuration not stated) -13.8%
Cc1ccc(NC(=O)CC(C)S(=O)(=O)c2ccc3c(c2)NC(=O)CO3)c(Cl)c1 (configuration not stated) 9.06%
COc1cc2c(cc1OC)C(CC(=O)O)N(C(=O)Nc1cc(OC)c(OC)c(OC)c1)CC2 (configuration not stated) -6.78%
CCc1cccc(NC(=O)C(Cc2ccccc2)NS(=O)(=O)c2cccs2)c1 (configuration not stated) -34.1%
CC(=O)c1ccc(Nc2cc(C)nc3nc(Cc4ccccc4)nn23)cc1 -4.48%
COc1ccc(N(CC(=O)NCCc2ccccc2)S(=O)(=O)c2c(C)nn(C)c2C)cc1 -11.3%
NS(=O)(=O)c1ccc(NC(=O)CCC(=O)O)cc1 -2.97%
CCCn1c2ccccc2c2cnn(CC(=O)Nc3cc(OC)c(OC)c(OC)c3)c(=O)c21 -10.3%
CCC1(C)CC(=O)c2c(ccc3oc(C(=O)Nc4ccc(C(C)=O)cc4)c(C)c23)O1 (configuration not stated) -18.4%
CCOc1ccc(C(=O)NCCc2csc(-c3cccc(C)c3)n2)cc1 -9.45%
CC(C)CC(=O)Nc1nnc(S(=O)(=O)N2c3ccccc3CC2C)s1 (configuration not stated) -10.5%
Cc1ccc(N2CCN(C(=O)Cn3ncc4c([nH]c5ccc(C)cc54)c3=O)CC2)c(C)c1 6.98%
CCc1ccc(C(=O)COC(=O)C(NC(=O)C2CCC(C)CC2)C(C)C)cc1 (configuration not stated) 3.38%
CCOc1ccc(CCNC(=O)CCCn2c(=O)c3cccn3c3cccnc32)cc1 0.068%
COc1ccc(-c2cc3ccc(O)c(CN4CCN(C)CC4)c3oc2=O)cc1OC 2.54%
CC(=O)Nc1ccc(Nc2ccc3cc(S(=O)(=O)N4CCCCC4)ccc3n2)cc1 -18.4%
O=C(NC1CC(=O)N(c2ccc(Cl)cc2)C1)c1cc2ccccc2o1 (configuration not stated) 2.54%
CC(=O)Oc1cc(C(C)C)c(OCCN(C)C)cc1C 12.4%
CCCc1ccc(OCC(=O)Nc2sc3c(c2C(=O)OCC)CCC(C(C)(C)C)C3)cc1 (configuration not stated) -12.2%
Nc1cc(=O)nc(SCC(=O)Nc2ccccc2)n1CCc1ccccc1 0.403%
COC1CCC(N(C(=O)C2CCC(C)CC2)c2cc(C3=CCCCC3)sc2C(=O)O)CC1 (configuration not stated) -25.5%
CCOC(=O)c1c(-c2ccc(OC)c(OC)c2)csc1NC(=O)c1ccccc1F -0.646%
COc1ccccc1Nc1nc(-c2ccccc2)c(CC(=O)O)s1 28.8%
COc1ccc2c(c1)c1c(c(=O)n(-c3cccc(C)c3)c(=O)n1CC(=O)NCCC1=CCCCC1)n2C -8.66%
Cc1ccc2nc3c(cc(C(=O)NC4CCCC4)c(=N)n3C(C)C)c(=O)n2c1 0.843%
O=c1c2cccnc2n(Cc2cccc(F)c2)c(=O)n1Cc1ccc(F)cc1 -24.6%
CCC(Nc1ccc(-c2nc(-c3cccnc3)no2)cc1[N+](=O)[O-])c1ccccc1 (configuration not stated) 3.69%
Cc1ccccc1OCC(=O)Nc1ccc2nc(SCC(=O)N3CCCC3)sc2c1 1.62%
CCOC(=O)c1cc(-c2ccc(OC)c(S(=O)(=O)N3CCN(c4ccccc4)CC3)c2)on1 -15.8%
CCOC(=O)c1c(S(=O)(=O)N2CCC(C(=O)NCc3ccccc3Cl)CC2)c(C)n(C)c1C -6.66%
COc1ccc(N2CC(NC(=O)C(c3ccccc3)c3ccccc3)CC2=O)cc1 (configuration not stated) 2.68%
COc1cccc(CNC(=O)c2ccc3c(c2)sc2nc(-c4cccc(OC)c4)cn23)c1 2.24%
CCOC(=O)c1ccc(NC(=O)Cn2nc(C)c3nn(-c4ccc(Cl)cc4)c(C)c3c2=O)cc1 -21%
CCc1nc2nc(C)cc(Nc3cc(C)ccc3C)n2n1 -19.3%
Cc1cccc(N2CCN(C(=O)c3cnn(-c4ccccc4)c3C3CCN(C(=O)OC(C)(C)C)CC3)CC2)c1C 2.35%
Cc1ccc(Nc2ncnc3c2nc2n3CCCC2)cc1F -10.4%
Clc1ccc(CSc2nncn3c2cc2occc23)cc1 -20%
CC(c1cc2ccccc2s1)N(O)C(N)=O (configuration not stated)
Cc1nc2nc[nH]n2c(=O)c1NS(=O)(=O)c1ccc(Br)cc1 -10.8%
CC1=C(c2ccc(Cl)cc2)S(=O)(=O)N=C1N1CCN(c2cc(C)ccc2C)CC1 -24.6%
Cc1cccc(N(C)S(=O)(=O)c2ccc3c(c2)NC(=O)CC(=O)N3)c1 -8.88%
CCCN1CCCc2cc(CN(CCCN3CCOCC3)C(=O)Nc3ccc(Cl)c(Cl)c3)ccc21 -29.8%
COc1cccc(Cn2c(=O)n(Cc3ccccc3)c(=O)c3c2c2cc(OC)ccc2n3C)c1 -5.86%
Cc1cc2[nH]c(=O)c(=O)[nH]c2cc1S(=O)(=O)N1CCN(c2ccccc2F)CC1 12%
CCOc1c(N2CCOCC2)cnn(C)c1=O 2.88%
COC(=O)c1c(NC(=O)c2ccc(C(C)(C)C)cc2)sc2c1CCC(C)C2 (configuration not stated) -17.5%
CC[C@@]1(O)C(=O)OCc2c1cc1n(c2=O)Cc2c-1nc1ccccc1c2/C=N/OC(C)(C)C -33.4%
CCN(C(=O)Cn1nc(Cc2ccncc2)c2ccccc2c1=O)c1ccc(OC)cc1 -6.19%
CCOC(=O)c1c(NC(=O)COc2ccccc2)sc(C(C)=O)c1C -8.48%
Clc1ccc(-c2cn3cc(Cc4ccccc4)sc3n2)cc1 -18.2%
CCc1ccc(NC(=O)CNC(=O)Cn2c(C)cc3ccccc3c2=O)cc1 -19.4%
O=C(CSc1nc(=O)n(Cc2ccncc2)c2c1CCC2)Nc1cccc(F)c1 -15.5%
CC1(C)CC(=O)c2cc(-c3nc(-c4ccc(F)cc4)cs3)c(=O)[nH]c2C1 1.58%
